Results on 167 variants are retold here after the RNAGym collection of RNA variant scans (doi:10.7554/elife.90254).

B1: LINE1-mini (parent)
chain: GGCAGAGCUCAACACAGCGUGGCAAAGUGGCUGUGGCUAGACUGCC

The source gives no read counts; variants with many changes may rest on few reads.

Variants of B1 are the subject of this series. The series is described as follows: self-cleavage, relative activity (ratio to wild type); higher = more cleavage; in vitro, sequencing; the parent is a self-cleaving ribozyme.
C8U U32A G33C: the self-cleavage is 0.08.
For the variant C8U G17C A26U A41C, the self-cleavage came to 0.02.
Under C8U G29U G30C stands 0.17; under U9A A11C G44C C45U, 0; under C8U C10G G17C G40A, 0.06.
In the case of C8U G17U U43G it was 0.02.
In the case of C8U G19A C31U it was 0.13; in that of C8U G19A C31A, 0.15.
On to C8U U28A U32G, for which the self-cleavage was found to be 0.04.
C8U U20G A25G U32A C45G: the self-cleavage worked out at 0.13.
Under C8U C13U G17A G29C C42A stands 0.27.
In the case of C8U C23A A41U G44A it was 0.52.
Under C8U C13G G22C G36U stands 0.13; under C8U C18G G21C G35U C46U, 0.03.
As for C8U C31G G36C, the self-cleavage turned out to be 0.11.
In the case of C8U U9G C31A G33U it was 0.09.
In the case of C8U C13G A14C A24C U43C it was 0.02; in that of C8U C23U U32G A41U, 0.18; in that of C8U C15A G30C, 0.3.
With C8U G21C A26U C46G, the self-cleavage was 0.09.
In the case of C8U C37G A41U it was 0.04; in that of U9A A11C G35C, 0.02; in that of C8U U28C A41U, 0.29.
In the case of C8U G33U G40C C42A it was 0.43; in that of C8U A26C C37A A39G U43A, 0.08; in that of U9A A11C C37A U38C, 0.01.
Under C8U C31A C42G stands 0.04.
With C8U C10U C15A C37A C46A, the self-cleavage came out at 0.06.
Take C8U A24U C31G G35C: the self-cleavage stood at 0.07.
In the case of C8U U28G G30U G36A it was 1.33; in that of C8U C13A A16G, 0.12.
In the case of C8U C42U C45U C46A it was 0.04.
In the case of C8U C31A G36U it was 0.45.
Consider C8U C18U G36A, for which the self-cleavage is 0.71.
Under U9A A11C A12G G21U stands 0.01; under C8U U9C C15A G27U G40A, 0.04.
Under C8U G30C G36C A39G stands 0.01; under C8U C15A G21A, 0.22.
As to C8U C23A G35A, the self-cleavage turned out to be 0.59.
In the case of C8U G19C U20G A25G G33C it was 0.11; in that of C8U U9C A14U U38C C42U G44U, 0.03; in that of C8U G19U U43C G44U, 0.2.
Turning to C8U G30U C37U, the self-cleavage is 0.09.
Under U9A A11C C23G G40A stands 0.02.
Under C8U C15A G19A stands 0.03.
In the case of C8U C18U A25U it was 0.25; in that of C8U C18U A25G, 0.19.
For C8U A16U C31A C37U U43C, the self-cleavage was determined as 0.11.
As to C8U C10A C15U C18G G29U C31U, the self-cleavage was found to be 0.01.
In the case of C8U A25U G29U it was 0.12; in that of C8U U20C G21U C45A C46G, 0.03.
In the case of C8U G21C U43A G44A, the self-cleavage amounted to 0.
Under C8U G21C G22A G40U stands 0.09; under C8U G21U C46A, 0.46; under C8U C37U G44C, 0.07.
In the case of C8U C15U G40U it was 0.29; in that of C8U G22U C37G G44U C46G, 0.18.
Under C8U A25U U28A G44U stands 0.29; under C8U U9C C10A G40A, 0.01; under C8U G21C G30C A39G, 0.04.
For C8U C15A A16C G17C G40A, the self-cleavage amounted to 0.14.
Under C8U C13A G21U G27C U28C U34A C45A stands 0.16; under C8U C15U G27U G30A C45G, 0.02; under C8U U9A C10A C46G, 0.02.
Under C8U C13U U28G C46G stands 0.51; under C8U U32C C46U, 0.07.
In the case of C8U U9C A12C C13G it was 0.05; in that of C8U C10A A16G G30U, 0.07; in that of C8U U28A C46A, 0.08.
As for C8U G22A G35A G40A, the self-cleavage is 0.2.
In the case of C8U U20A C42A it was 0.1.
In the case of C8U C23G C42U it was 0.02; in that of C8U U9C A11C C15A A25G A26U, 0.03.
Under C8U A25C G29C stands 0.09.
Turning to C8U A39C C45U, the self-cleavage came out at 0.25.
Under C8U C15G G30A stands 0.07; under C8U G22U C23U U28A A39C, 0.44; under C8U C10U C23U U34C U43C C45U, 0.02.
Under C8U G21A G30U G44U stands 0.14.
Under C8U C10A A41G stands 0.03.
For the variant C8U C13U C15G G17C U28C G40U, the self-cleavage was determined as 0.17.
For the variant C8U A25U U28G, the self-cleavage was determined as 0.14.
In the case of C8U G30A C42U it was 0.18; in that of C8U A25C G30A G33U, 0.07.
Under C8U C10A A16C A25C G27U stands 0.01.
Under C8U G36A C37G stands 0.28.
As to C8U A16U G17U C46A, the self-cleavage is 0.39.
Consider C8U U9A U20C G21U, for which the self-cleavage came to 0.03.
In the case of C8U A26C G27C, the self-cleavage worked out at 0.2.
Turning to C8U A26C G27U, the self-cleavage is 0.24.
For C8U U20A G21A, the self-cleavage was determined as 0.22.
In the case of C8U U34A A39U it was 0.14; in that of C8U C13U G44A, 1.38.
Consider C8U C15U C18G G35U, for which the self-cleavage amounted to 0.78.
In the case of C8U C15U U20C C45A it was 0.45; in that of U9A A11U A12C, 0.03.
In the case of C8U G21U C31U it was 0.19; in that of C8U C10A G40U, 0.04.
In the case of C8U G21U U28A it was 0.03; in that of C8U G27C G29U G44U, 0.1.
For the variant C8U A25U A39G G40A A41C, the self-cleavage amounted to 0.02.
With C8U G19A G22U C23G, the self-cleavage was 0.21.
Under C8U U9A U20A G33U G35A stands 0.06.
In the case of C8U C10G A16C G22U C46U it was 0.02; in that of U9A A11C C42A C46A, 0; in that of C8U A24C C37G U43C, 0.04.
Under U9A A11U G30A U43A stands 0.02; under C8U C10A U20G, 0.03; under C8U C13U A14C G21U G40A, 0.02.
On to C8U G19U U32A U34A, for which the self-cleavage worked out at 0.04.
In the case of C8U G17U U32G it was 0.06; in that of C8U C23A U38G, 0.02; in that of C8U C23A U38A, 0.11.
In the case of U9A A11C A14G G19C it was 0.03; in that of C8U U20C G29C, 0.09.
Turning to U9A A11U A16G C31G G35U A39U, the self-cleavage is 0.01.
In the case of C8U G19A G36A C46U, the self-cleavage is 0.83.
In the case of C8U A26C G30U it was 0.31.
In the case of C8U G19U G21A it was 0.24; in that of C8U C13A C15U A16G, 0.04.
Under C8U G19U U38C C46U stands 0.1; under C8U C18U G19A, 1.63; under C8U C15A A25U U38A, 0.02.
As for C8U U9C C13G, the self-cleavage came out at 0.11.
In the case of C8U G22U A39G it was 0.02; in that of C8U U9G A14G A25G A26U G27A, 0; in that of C8U C10G A14U, 0.05.
In the case of C8U U20C G22U G30U it was 0.04; in that of C8U G19A G44A, 0.3; in that of C8U U9C C23G U32A G35U U43C, 0.03.
Under C8U G17C A25C C31U stands 0.04.
For the variant C8U C23U G35C A41U, the self-cleavage came out at 0.62.
Take C8U C10U G44U C45G: the self-cleavage is 0.03.
In the case of C8U A24U U32A it was 0.29; in that of C8U G29C G35A A41C C42G, 0.09; in that of C8U C18A A25C C46G, 0.03.
With C8U C10U A16C A26U G30U U38A, the self-cleavage is 0.01.
With C8U C18U U20C U43A C45G, the self-cleavage worked out at 0.32.
Under C8U C23A U38C A39G stands 0.11; under U9A A11U A25G, 0; under C8U C15U U20A C23U, 0.7.
In the case of C8U G21A U34G G36U it was 0.05; in that of C8U C15G A16U G27C, 0.25.
Under C8U C23U G27A U32C stands 0.15; under C8U U20A U32C A39U G40U, 0.18; under C8U G30U G35C C37A, 0.
On to U9A A11C G40U, for which the self-cleavage was determined as 0.02.
Under U9A A11C G30U U43A stands 0.01; under C8U G33C G36U C37G U38C C46U, 0.02.
C8U U20A A39C: the self-cleavage was determined as 0.03.
In the case of C8U A16U A26U A39G it was 0.05; in that of C8U G17U G29U, 0.53.
In the case of C8U G17U G29C it was 0.19.
In the case of C8U C15A A16C it was 0.04; in that of C8U C13U G19C A25C C37U, 0.05.
Turning to C8U C13A A26G G30U C31U, the self-cleavage stood at 0.11.
Under C8U G27A G36C stands 0.11; under C8U U9A C10U G21A C31A G40U, 0.03.
In the case of C8U G35U A41C it was 0.04; in that of C8U C31U U32A G44U, 0.2.
In the case of C8U C15A U32A C37G C45G it was 0.08.
Regarding C8U G17C A24C A41C, the self-cleavage came to 0.05.
In the case of C8U C13G U32C C42U C45U C46U it was 0.05.
Under C8U C10A C13U G29U G36U stands 0.02.
In the case of C8U U9C G30U U34C, the self-cleavage was found to be 0.01.
Under C8U G30U U34C stands 0.25.
In the case of C8U C10A C18A it was 0.02.
